The experiment has as its target T1, NOT1:NOT2:NOT3:CAF40 subcomplex (full-length subunits) (human, UniProt A5YKK6; Q9NZN8; O75175; Q92600).
T1 construct: NOT1, human, full length; NOT2, human, full length; NOT3, human, full length; CAF40, human, full length; No removal of the tags of NOT1 is reported; also called NOT1:NOT2:NOT3:CAF40 complex; NOT1:NOT2:NOT3:CAF40 tetramer; source: Sf21 insect cells (baculovirus), purified (nickel IMAC); copies: + + +
Nature of the experiment: SEC-MALS; reconstituted CCR4-NOT FULL, 40 ul at 0.9 mg/ml, Superose 6 5/150 in 10 mM HEPES/NaOH pH 7.5, 200 mM NaCl; SDS-PAGE with Coomassie staining of the complex. Conditions: both partners purified.

One may read the stoichiometry N as the number of molecules, sites or subunits per partner or assembly.

T1 sequence (A5YKK6 whole entry, chain 1 of 4): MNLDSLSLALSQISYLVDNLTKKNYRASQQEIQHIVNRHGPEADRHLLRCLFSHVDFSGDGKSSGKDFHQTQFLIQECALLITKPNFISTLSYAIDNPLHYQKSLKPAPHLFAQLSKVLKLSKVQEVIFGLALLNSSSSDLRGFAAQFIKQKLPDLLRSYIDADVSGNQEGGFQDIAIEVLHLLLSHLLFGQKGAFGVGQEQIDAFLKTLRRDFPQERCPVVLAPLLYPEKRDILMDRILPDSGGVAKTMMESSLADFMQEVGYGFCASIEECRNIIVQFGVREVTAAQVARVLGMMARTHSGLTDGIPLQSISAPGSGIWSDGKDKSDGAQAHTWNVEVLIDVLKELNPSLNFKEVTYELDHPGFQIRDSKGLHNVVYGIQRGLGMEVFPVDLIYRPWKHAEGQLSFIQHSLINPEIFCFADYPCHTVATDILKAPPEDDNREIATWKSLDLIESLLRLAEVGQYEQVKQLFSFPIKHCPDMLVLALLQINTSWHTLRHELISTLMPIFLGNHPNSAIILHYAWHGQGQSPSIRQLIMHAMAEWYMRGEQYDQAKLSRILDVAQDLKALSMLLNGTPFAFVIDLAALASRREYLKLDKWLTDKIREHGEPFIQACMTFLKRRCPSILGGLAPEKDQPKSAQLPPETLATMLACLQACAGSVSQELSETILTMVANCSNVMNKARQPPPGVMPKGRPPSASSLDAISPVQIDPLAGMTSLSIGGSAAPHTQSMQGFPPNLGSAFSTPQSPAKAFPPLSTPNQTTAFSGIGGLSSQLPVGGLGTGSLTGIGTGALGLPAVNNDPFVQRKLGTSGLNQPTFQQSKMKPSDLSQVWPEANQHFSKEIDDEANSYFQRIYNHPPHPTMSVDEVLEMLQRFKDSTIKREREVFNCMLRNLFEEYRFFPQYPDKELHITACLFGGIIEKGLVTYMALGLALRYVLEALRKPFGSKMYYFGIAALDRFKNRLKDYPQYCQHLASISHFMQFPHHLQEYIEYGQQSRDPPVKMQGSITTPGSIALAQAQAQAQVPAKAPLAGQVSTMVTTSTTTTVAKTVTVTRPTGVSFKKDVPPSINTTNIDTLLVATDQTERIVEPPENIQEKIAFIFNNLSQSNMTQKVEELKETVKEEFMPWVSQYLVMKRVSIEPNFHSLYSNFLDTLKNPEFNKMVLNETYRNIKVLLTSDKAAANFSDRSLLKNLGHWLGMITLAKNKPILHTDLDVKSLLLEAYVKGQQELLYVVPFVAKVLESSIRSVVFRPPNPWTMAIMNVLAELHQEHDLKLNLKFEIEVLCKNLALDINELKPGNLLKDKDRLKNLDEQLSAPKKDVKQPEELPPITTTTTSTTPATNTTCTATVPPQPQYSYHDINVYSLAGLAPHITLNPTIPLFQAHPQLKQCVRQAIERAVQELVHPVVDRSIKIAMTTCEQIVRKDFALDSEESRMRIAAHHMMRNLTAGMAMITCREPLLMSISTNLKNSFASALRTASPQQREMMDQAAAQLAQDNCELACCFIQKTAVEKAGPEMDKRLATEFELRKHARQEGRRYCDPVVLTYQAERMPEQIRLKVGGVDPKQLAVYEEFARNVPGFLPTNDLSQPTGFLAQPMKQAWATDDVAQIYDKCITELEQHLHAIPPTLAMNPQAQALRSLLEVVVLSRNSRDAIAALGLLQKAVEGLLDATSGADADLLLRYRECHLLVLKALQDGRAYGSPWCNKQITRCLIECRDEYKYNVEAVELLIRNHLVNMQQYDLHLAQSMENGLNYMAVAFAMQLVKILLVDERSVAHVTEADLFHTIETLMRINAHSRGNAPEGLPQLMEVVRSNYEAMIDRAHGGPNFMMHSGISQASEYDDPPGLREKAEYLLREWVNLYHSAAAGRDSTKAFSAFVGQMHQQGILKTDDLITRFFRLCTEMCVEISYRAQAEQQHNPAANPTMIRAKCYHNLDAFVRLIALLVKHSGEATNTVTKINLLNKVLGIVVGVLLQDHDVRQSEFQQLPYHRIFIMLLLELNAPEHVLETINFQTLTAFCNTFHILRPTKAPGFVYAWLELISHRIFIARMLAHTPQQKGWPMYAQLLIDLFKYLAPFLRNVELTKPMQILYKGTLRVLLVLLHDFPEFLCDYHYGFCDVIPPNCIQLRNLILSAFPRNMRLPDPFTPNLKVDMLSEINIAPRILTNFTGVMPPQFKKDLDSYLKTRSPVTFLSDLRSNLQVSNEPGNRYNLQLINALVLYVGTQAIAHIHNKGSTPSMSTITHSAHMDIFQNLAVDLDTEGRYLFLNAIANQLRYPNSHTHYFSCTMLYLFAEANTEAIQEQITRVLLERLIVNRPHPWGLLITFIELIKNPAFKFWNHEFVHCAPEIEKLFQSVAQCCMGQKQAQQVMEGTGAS
T1 sequence (Q9NZN8 whole entry, chain 2 of 4, further chain): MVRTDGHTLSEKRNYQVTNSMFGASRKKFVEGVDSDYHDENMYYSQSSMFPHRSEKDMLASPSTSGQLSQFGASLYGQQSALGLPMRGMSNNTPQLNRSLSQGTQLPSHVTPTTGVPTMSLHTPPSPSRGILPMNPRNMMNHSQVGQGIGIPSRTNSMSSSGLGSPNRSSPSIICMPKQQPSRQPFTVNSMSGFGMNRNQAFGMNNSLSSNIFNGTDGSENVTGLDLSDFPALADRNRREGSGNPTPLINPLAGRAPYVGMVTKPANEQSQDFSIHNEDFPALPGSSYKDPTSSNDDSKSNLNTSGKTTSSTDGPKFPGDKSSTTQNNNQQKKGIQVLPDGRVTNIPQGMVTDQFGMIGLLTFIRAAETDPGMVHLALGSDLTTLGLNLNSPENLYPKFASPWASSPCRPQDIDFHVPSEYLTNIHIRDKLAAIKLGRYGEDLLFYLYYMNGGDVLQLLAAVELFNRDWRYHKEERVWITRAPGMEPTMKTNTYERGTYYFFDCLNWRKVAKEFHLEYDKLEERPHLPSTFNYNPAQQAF
T1 sequence (O75175 whole entry, chain 3 of 4, further chain): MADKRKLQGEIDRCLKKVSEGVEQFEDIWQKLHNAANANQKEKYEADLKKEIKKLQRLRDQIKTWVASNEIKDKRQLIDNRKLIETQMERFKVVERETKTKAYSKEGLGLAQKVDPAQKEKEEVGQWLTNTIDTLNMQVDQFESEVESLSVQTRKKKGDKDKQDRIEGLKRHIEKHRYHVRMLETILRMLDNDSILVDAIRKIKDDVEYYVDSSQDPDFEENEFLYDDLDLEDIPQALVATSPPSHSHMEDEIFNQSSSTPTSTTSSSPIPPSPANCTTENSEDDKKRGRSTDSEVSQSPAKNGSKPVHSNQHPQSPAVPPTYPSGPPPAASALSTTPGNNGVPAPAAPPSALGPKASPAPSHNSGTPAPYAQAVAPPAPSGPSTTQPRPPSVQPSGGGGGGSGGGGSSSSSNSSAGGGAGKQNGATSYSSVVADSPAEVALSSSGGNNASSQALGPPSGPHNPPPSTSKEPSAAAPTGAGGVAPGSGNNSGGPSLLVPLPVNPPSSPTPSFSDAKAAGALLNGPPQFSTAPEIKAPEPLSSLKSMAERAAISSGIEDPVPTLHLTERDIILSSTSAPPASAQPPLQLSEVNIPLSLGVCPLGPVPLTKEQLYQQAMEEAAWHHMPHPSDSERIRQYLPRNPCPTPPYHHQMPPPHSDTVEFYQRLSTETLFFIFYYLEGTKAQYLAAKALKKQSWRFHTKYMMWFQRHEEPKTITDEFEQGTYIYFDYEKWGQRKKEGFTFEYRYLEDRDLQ
T1 sequence (Q92600 whole entry, chain 4 of 4, further chain): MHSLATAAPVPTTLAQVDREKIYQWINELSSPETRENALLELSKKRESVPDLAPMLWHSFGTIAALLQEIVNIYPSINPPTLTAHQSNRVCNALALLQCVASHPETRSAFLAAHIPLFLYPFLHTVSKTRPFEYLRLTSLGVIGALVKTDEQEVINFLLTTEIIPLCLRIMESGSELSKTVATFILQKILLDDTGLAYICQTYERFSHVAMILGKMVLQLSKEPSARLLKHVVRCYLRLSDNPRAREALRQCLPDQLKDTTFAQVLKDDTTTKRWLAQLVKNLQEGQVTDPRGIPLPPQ

B1: NOT10:NOT11 heterodimer (complex)
chain 1: not shown
chain 2: not shown
notes: NOT10, human, […]; NOT11, human, […]; also called NOT10:NOT11 module; source: E. coli BL21(DE3) Star, co-expressed, purified (IMAC, SEC); not shown: MBP, N-terminal, cleaved; His6, C-terminal, cleaved
With B1, the “stoichiometry N” value worked out at 1.

For the origin of these results see PMC6639331, “Reconstitution of recombinant human CCR4-NOT reveals molecular insights into regulated deadenylation” (Nature Communications, 2019).
